# Assay results published in the supplement of paper PMC6451100.
# Some of the results follow. Read counts after selection give these values, which scatter widely.
# System: Drosophila AGO1 (endogenous, S2-R+ lysate)
# Experiment: AGO1 loading enrichment factor (IP read count / input read count, not library-size normalised) (ratio); higher = more efficient loading into AGO1
# Conditions: randomized region: 5' 5N of miR-317 loop
# Method: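 HISSA: 5'-phosphorylated, 32P-labelled 20-nt ssRNA oligos (miR-317 loop, first 5 nt randomized, constant 3' part TGAAATGCAAGCAAG as printed in methods; DNA letters for RNA) incubated 1 h at 25°C in S2-R+ cell lysate. Endogenous AGO1 was immunopurified with anti-AGO1 and bound oligos were sequenced after splinted ligation.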
# 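Further: S2-R+ lysate came from cells stably expressing FLAG-tagged AGO2, enrichment per 5N variant computed with FASTAptamer, reads lacking the constant 3′ segment discarded.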
row,Sequence,AGO1 loading enrichment factor
1,CGCGGTGAAATGCAAGCAAG,0.104
2,CGCGATGAAATGCAAGCAAG,0.472
3,TTAGTTGAAATGCAAGCAAG,0.148
4,TGGGCTGAAATGCAAGCAAG,0.0708
5,GAGACTGAAATGCAAGCAAG,0.33
6,ATACGTGAAATGCAAGCAAG,0.138
7,GTTTGTGAAATGCAAGCAAG,0.0502
8,CTTTATGAAATGCAAGCAAG,0.171
9,CTCGTTGAAATGCAAGCAAG,0.0731
10,CAAAATGAAATGCAAGCAAG,0.152
11,TGGCCTGAAATGCAAGCAAG,0.282
12,ACGCGTGAAATGCAAGCAAG,0.0924
13,TAGTTTGAAATGCAAGCAAG,0.145
14,TCCCGTGAAATGCAAGCAAG,0.469
15,CGTTTTGAAATGCAAGCAAG,0.0844
16,CTATCTGAAATGCAAGCAAG,0.128
17,ATCCATGAAATGCAAGCAAG,0.253
18,CATTCTGAAATGCAAGCAAG,0.00507
19,CACTTTGAAATGCAAGCAAG,0.0612
20,GTCTGTGAAATGCAAGCAAG,0.0124
21,ACGTTTGAAATGCAAGCAAG,0.0363
22,ATAGATGAAATGCAAGCAAG,0.128
23,ACGCCTGAAATGCAAGCAAG,0.185
24,CGGATTGAAATGCAAGCAAG,0.14
25,CTTGATGAAATGCAAGCAAG,0.00743

row,Sequence,AGO1 loading enrichment factor
1,TAAGATGAAATGCAAGCAAG,0.327
2,CTCACTGAAATGCAAGCAAG,0.118
3,CTAGTTGAAATGCAAGCAAG,0.0481
4,AAACGTGAAATGCAAGCAAG,0.148
5,GGACTTGAAATGCAAGCAAG,0.095
6,TACACTGAAATGCAAGCAAG,0.487
7,CCACTTGAAATGCAAGCAAG,0.00328
8,AGACATGAAATGCAAGCAAG,0.401
9,CGATCTGAAATGCAAGCAAG,0.034
10,CAGCGTGAAATGCAAGCAAG,0.102
11,CAGTATGAAATGCAAGCAAG,0.072
12,GCAGTTGAAATGCAAGCAAG,0.038
13,GACTATGAAATGCAAGCAAG,2.2
14,TCGAATGAAATGCAAGCAAG,0.59
15,ATGCCTGAAATGCAAGCAAG,0.442
16,TTTCGTGAAATGCAAGCAAG,0.55
17,AAGGTTGAAATGCAAGCAAG,0.121
18,CTTCGTGAAATGCAAGCAAG,0.00566
19,ATTGGTGAAATGCAAGCAAG,0.232
20,GCAGCTGAAATGCAAGCAAG,0.0124
21,GTGGATGAAATGCAAGCAAG,0.831
22,CTCTCTGAAATGCAAGCAAG,0.0241
23,TTAACTGAAATGCAAGCAAG,0.248
24,TGCGGTGAAATGCAAGCAAG,0.0635
25,ACGGGTGAAATGCAAGCAAG,0.451

row,Sequence,AGO1 loading enrichment factor
1,AATGTTGAAATGCAAGCAAG,0.12
2,GAATGTGAAATGCAAGCAAG,0.084
3,TGAGTTGAAATGCAAGCAAG,0.172
4,GGCTGTGAAATGCAAGCAAG,0.125
5,ACATGTGAAATGCAAGCAAG,0.0755
6,TCCTGTGAAATGCAAGCAAG,0.212
7,CTGATTGAAATGCAAGCAAG,0.102
8,TATAATGAAATGCAAGCAAG,0.441
9,GAGCATGAAATGCAAGCAAG,0.0843
10,AACGTTGAAATGCAAGCAAG,0.121
11,ATTCTTGAAATGCAAGCAAG,0.251
12,AACCTTGAAATGCAAGCAAG,0.151
13,TGATTTGAAATGCAAGCAAG,0.0792
14,ATACTTGAAATGCAAGCAAG,0.125
15,GCGGTTGAAATGCAAGCAAG,0.655
16,GCCAGTGAAATGCAAGCAAG,0.0843
17,GCGATTGAAATGCAAGCAAG,1.19
18,TTGATTGAAATGCAAGCAAG,1.2
19,CCCGATGAAATGCAAGCAAG,0.0923
20,GGTTTTGAAATGCAAGCAAG,0.142
21,GACAATGAAATGCAAGCAAG,5.52
22,GGCGTTGAAATGCAAGCAAG,0.184
23,ACTGTTGAAATGCAAGCAAG,0.182
24,CTGGCTGAAATGCAAGCAAG,0.0291
25,TCGACTGAAATGCAAGCAAG,0.976

row,Sequence,AGO1 loading enrichment factor
1,AGTCCTGAAATGCAAGCAAG,0.106
2,CATAGTGAAATGCAAGCAAG,0.0631
3,CGGTGTGAAATGCAAGCAAG,0.172
4,CCTCTTGAAATGCAAGCAAG,0.00541
5,GTCGATGAAATGCAAGCAAG,1.66
6,TGTTTTGAAATGCAAGCAAG,0.153
7,CGGAGTGAAATGCAAGCAAG,0.283
8,ACTGCTGAAATGCAAGCAAG,0.0773
9,AACCCTGAAATGCAAGCAAG,0.636
10,AAAACTGAAATGCAAGCAAG,0.141
11,GTACCTGAAATGCAAGCAAG,0.506
12,GACACTGAAATGCAAGCAAG,3.27
13,AAGCGTGAAATGCAAGCAAG,0.12
14,GGTAATGAAATGCAAGCAAG,0.123
15,GAGATTGAAATGCAAGCAAG,0.169
16,GACCCTGAAATGCAAGCAAG,0.575
17,ATGAGTGAAATGCAAGCAAG,0.209
18,CTCGATGAAATGCAAGCAAG,0.0678
19,AATATTGAAATGCAAGCAAG,0.149
20,AAACATGAAATGCAAGCAAG,0.103
21,CGGAATGAAATGCAAGCAAG,0.119
22,TAGCATGAAATGCAAGCAAG,0.454
23,GATCGTGAAATGCAAGCAAG,0.109
24,CGGGCTGAAATGCAAGCAAG,0.0521
25,AGAAGTGAAATGCAAGCAAG,0.115

row,Sequence,AGO1 loading enrichment factor
1,CTTTCTGAAATGCAAGCAAG,0.00607
2,TGTAGTGAAATGCAAGCAAG,0.0757
3,AGACGTGAAATGCAAGCAAG,1.02
4,TCAATTGAAATGCAAGCAAG,0.27
5,ACGCATGAAATGCAAGCAAG,0.111
6,TGGCGTGAAATGCAAGCAAG,0.109
7,TCTGCTGAAATGCAAGCAAG,1.62
8,TTATATGAAATGCAAGCAAG,0.216
9,AAGTTTGAAATGCAAGCAAG,0.0995
10,AGAAATGAAATGCAAGCAAG,0.094
11,TCGGATGAAATGCAAGCAAG,0.339
12,TGCGCTGAAATGCAAGCAAG,0.0471
13,CACGGTGAAATGCAAGCAAG,0.177
14,AGGAGTGAAATGCAAGCAAG,0.378
15,ACGGTTGAAATGCAAGCAAG,0.161
16,GTTTTTGAAATGCAAGCAAG,0.0496
17,CTCTATGAAATGCAAGCAAG,0.39
18,TCGGTTGAAATGCAAGCAAG,0.135
19,GAGCCTGAAATGCAAGCAAG,0.101
20,TAACATGAAATGCAAGCAAG,0.619
21,GGCCTTGAAATGCAAGCAAG,0.086
22,CGCGCTGAAATGCAAGCAAG,0.0124
23,TTGCATGAAATGCAAGCAAG,1.05
24,CATGGTGAAATGCAAGCAAG,0.0568
25,TTGCCTGAAATGCAAGCAAG,0.933

row,Sequence,AGO1 loading enrichment factor
1,CGTAGTGAAATGCAAGCAAG,0.0527
2,CTGGATGAAATGCAAGCAAG,0.155
3,GGGCCTGAAATGCAAGCAAG,0.259
4,CGTCATGAAATGCAAGCAAG,0.0869
5,CTGCATGAAATGCAAGCAAG,0.0284
6,GCAAATGAAATGCAAGCAAG,0.0677
7,GGTATTGAAATGCAAGCAAG,0.0436
8,CCTTCTGAAATGCAAGCAAG,0.0703
9,CTTAATGAAATGCAAGCAAG,0.0452
10,GTCTATGAAATGCAAGCAAG,0.0855
11,GTTCCTGAAATGCAAGCAAG,0.31
12,GGGGTTGAAATGCAAGCAAG,1.91
13,CACATTGAAATGCAAGCAAG,0.122
14,AATTGTGAAATGCAAGCAAG,0.143
15,ACAAATGAAATGCAAGCAAG,0.222
16,GTGCATGAAATGCAAGCAAG,0.0762
17,CTAGGTGAAATGCAAGCAAG,0.0479
18,CTCCATGAAATGCAAGCAAG,0.0481
19,CGAGATGAAATGCAAGCAAG,0.172
20,ATGTTTGAAATGCAAGCAAG,0.0719
21,ATCATTGAAATGCAAGCAAG,0.177
22,GAGAGTGAAATGCAAGCAAG,0.243
23,TTTTATGAAATGCAAGCAAG,0.32
24,ATAGGTGAAATGCAAGCAAG,0.139
25,TGCCTTGAAATGCAAGCAAG,0.0619

row,Sequence,AGO1 loading enrichment factor
1,AGCGATGAAATGCAAGCAAG,0.625
2,TTACTTGAAATGCAAGCAAG,0.555
3,TAGGTTGAAATGCAAGCAAG,0.232
4,CTCAGTGAAATGCAAGCAAG,0.0419
5,CTACATGAAATGCAAGCAAG,0.0801
6,ACGTCTGAAATGCAAGCAAG,0.246
7,CCAAATGAAATGCAAGCAAG,0.173
8,GTCGTTGAAATGCAAGCAAG,0.122
9,TAAATTGAAATGCAAGCAAG,0.399
10,GGACCTGAAATGCAAGCAAG,0.707
11,TAAAGTGAAATGCAAGCAAG,0.413
12,GGACGTGAAATGCAAGCAAG,20.6
13,CAGTGTGAAATGCAAGCAAG,0.164
14,TAGGCTGAAATGCAAGCAAG,0.125
15,AGCAATGAAATGCAAGCAAG,0.0858
16,CGCCTTGAAATGCAAGCAAG,0.00535
17,CTAGCTGAAATGCAAGCAAG,0.00455
18,CAGCATGAAATGCAAGCAAG,0.0947
19,CAAGGTGAAATGCAAGCAAG,0.078
20,ACTACTGAAATGCAAGCAAG,0.282
21,TCTCTTGAAATGCAAGCAAG,0.129
22,ACGAATGAAATGCAAGCAAG,0.19
23,CGGGGTGAAATGCAAGCAAG,1.49
24,CACTCTGAAATGCAAGCAAG,0.0428
25,CAGCCTGAAATGCAAGCAAG,0.0491

row,Sequence,AGO1 loading enrichment factor
1,TTTCTTGAAATGCAAGCAAG,1
2,GCGGATGAAATGCAAGCAAG,2.08
3,TAACCTGAAATGCAAGCAAG,0.525
4,ACTTCTGAAATGCAAGCAAG,0.118
5,GGAATTGAAATGCAAGCAAG,0.115
6,AAAGATGAAATGCAAGCAAG,0.143
7,CACCCTGAAATGCAAGCAAG,0.235
8,CCCAGTGAAATGCAAGCAAG,0.0884
9,TGAAGTGAAATGCAAGCAAG,0.151
10,CACTATGAAATGCAAGCAAG,0.113
11,TTGTGTGAAATGCAAGCAAG,0.0979
12,TAATGTGAAATGCAAGCAAG,0.254
13,CGTATTGAAATGCAAGCAAG,0.0607
14,CGACGTGAAATGCAAGCAAG,5.15
15,TCCAGTGAAATGCAAGCAAG,0.434
16,TCCCATGAAATGCAAGCAAG,0.859
17,CAAACTGAAATGCAAGCAAG,0.0817
18,GATGATGAAATGCAAGCAAG,0.391
19,TTATGTGAAATGCAAGCAAG,0.241
20,GAAAATGAAATGCAAGCAAG,0.116
21,ATTTCTGAAATGCAAGCAAG,0.0822
22,AACCGTGAAATGCAAGCAAG,0.489
